# Laboratory results taken from US10138255B2, “Piperazine derivatives as HIV protease inhibitors” (Merck Sharp & Dohme Corp., priority 2014, dated 2018).
# The name of at least one read-out is uncertain.
# Test system: HIV-1 (H9IIIB strain)
# Assay: Cell-Based HIV Infection Assay Using a Reporter (MT4-GFP cells)
# Details: inflection point (IP) of viral growth inhibition; MT4-GFP cells infected with HIV-1 H9IIIB; 50% normal human serum; mean of at least two independent experiments
# Procedure: Cell-Based HIV Infection Assay Using a Reporter (“Cell-Based”):
# MT4-GFP cells contain a stably integrated HIV long terminal repeat promoter directing the transcription of green fluorescent protein (GFP). When HIV infects the cell, GFP is produced and the cell becomes green. MT4-GFP cells (250,000 cells/mL) were bulk-infected with HIV-1 (H9IIIB strain) at low multiplicity of infection (MOI) in RPM 1640 media, supplemented with 10% FBS for 24 h. Cells were then washed once in RPMI 1640 plus 10% FBS and resuspended in RPMI plus 50% normal human serum (NHS). Test compounds were serial-diluted in DMSO using an ECHO liquid dispenser. A control well included a combination of three HIV drugs (an inhibitor of HIV protease, integrase strand transfer and a non-nucleoside reverse transcriptase inhibitor; triple drug). The infected MT4-GFP cells were added to a 384-well poly-D-lysine coated black plate with clear bottom in which the diluted test compounds were placed. The cells were seeded in the plate at 8,000 cells per well and the final DMSO concentration was 0.4%. Infected cells were quantified at both 24 and 48 h post incubation using an Acumen eX3 plate reader. Viral reproductive ratio (R0) was determined using the number of infected cells at 48 h divided by the number of infected cells at 24 h. Percent viral growth inhibition was calculated by [1−(R−Rtripledrug)/(RDMSO−Rtripledrug)]*100. Compound potency inflection point (IP) was determined with use of a 4-parameter dose response curve analysis.
# Data shown in the table reflects the mean of at least two independent experiments.
row,Structure (SMILES),Cell Based IP (50% NHS) [nM]
1,"COC(=O)N[C@H](C(=O)Nc1cccc(F)c1CC[C@H]1CN[C@@H]2CCCS(=O)(=O)N1C2)[C@@H](c1ccc(F)cc1)C1CCCCO1 (stereo partly drawn) [Example 103, methyl {(1S)-2-[(2-{2-[(6R,9S)-2,2-dioxido-2-thia-1,7-diazabicyclo[4.3.1]dec-9-yl]ethyl}-3-fluorophenyl)amino]-1-[(R)-(4-fluorophenyl)(tetrahydro-2H-pyran-2-yl)methyl]-2-oxoethyl}carbamate]",68
2,"N[C@H](C(=O)Nc1cccc(F)c1CC[C@H]1CN[C@@H]2CCCS(=O)(=O)N1C2)C(c1ccc(F)cc1)c1ccc(C(F)(F)F)cn1 (stereo partly drawn) [Example 221, N-(2-{2-[(6R,9S)-2,2-dioxido-2-thia-1,7-diazabicyclo[4.3.1]dec-9-yl]ethyl}-3-fluorophenyl)-4-fluoro-β-[5-(trifluoromethyl)pyridin-2-yl]phenylalaninamide]",6.4
3,"CC(C)C1CC([C@H](c2ccc(Cl)cc2)[C@H](N)C(=O)Nc2cccc(F)c2CCC2CNC3CCCS(=O)(=O)N2C3)CCO1 (stereo partly drawn) [Example 124, (βR)-4-chloro-N-{2-[2-(2,2-dioxido-2-thia-1,7-diazabicyclo[4.3.1]dec-9-yl)ethyl]-3-fluorophenyl}-β-[2-(1-methylethyl)tetrahydro-2H-pyran-4-yl]-L-phenylalaninamide]",41
4,"N[C@H](C(=O)Nc1cccc(F)c1CC[C@H]1CN[C@@H]2CCCS(=O)(=O)N1C2)[C@@H](c1ccc(F)cc1)C1CCCCO1 (stereo partly drawn) [Example 104, (βR)-N-(2-{2-[(6R,9S)-2,2-dioxido-2-thia-1,7-diazabicyclo[4.3.1]dec-9-yl]ethyl}-3-fluorophenyl)-4-fluoro-β-(tetrahydro-2H-pyran-2-yl)-L-phenylalaninamide]",24
5,"COC(=O)N[C@H](C(=O)Nc1cccc(F)c1CCC1CNC2CCCS(=O)(=O)N1C2)[C@@H](c1ccc(Cl)cc1)C1CCOC(C(C)C)C1 (stereo partly drawn) [Example 128, methyl {(1S,2R)-2-(4-chlorophenyl)-1-({2-[2-(2,2-dioxido-2-thia-1,7-diazabicyclo[4.3.1]dec-9-yl)ethyl]-3-fluorophenyl}carbamoyl)-2-[2-(1-methylethyl)tetrahydro-2H-pyran-4-yl]ethyl}carbamate]",80
6,"COC(=O)N[C@H](C(=O)Nc1cccc(F)c1CCC1CNC2CCCS(=O)(=O)N1C2)[C@@H](c1ccc(Cl)cc1)C1CCOC(C(C)C)C1 (stereo partly drawn) [Example 136, methyl {(1S,2R)-2-(4-chlorophenyl)-1-({2-[2-(2,2-dioxido-2-thia-1,7-diazabicyclo[4.3.1]dec-9-yl)ethyl]-3-fluorophenyl}carbamoyl)-2-[2-(1-methylethyl)tetrahydro-2H-pyran-4-yl]ethyl}carbamate]",5.8
7,"N[C@H](C(=O)Nc1cccc(F)c1CC[C@H]1CN[C@@H]2CCCS(=O)(=O)N1C2)[C@@H](c1ccc(F)cc1)C1CCCOC1 (stereo partly drawn) [Example 223, (βR)-N-(2-{2-[(6R,9S)-2,2-dioxido-2-thia-1,7-diazabicyclo[4.3.1]dec-9-yl]ethyl}-3-fluorophenyl)-4-fluoro-β-(tetrahydro-2H-pyran-3-yl)-L-phenylalaninamide]",13
8,"COC(=O)NC(C(=O)Nc1cccc(F)c1CC[C@H]1CN[C@@H]2CCCS(=O)(=O)N1C2)C(c1ccc(F)cc1)c1ccc(C(F)(F)F)cn1 (stereo partly drawn) [Example 220, methyl (2-[(2-{2-[(6R,9S)-2,2-dioxido-2-thia-1,7-diazabicyclo[4.3.1]dec-9-yl]ethyl}-3-fluorophenyl)amino]-1-{(4-fluorophenyl)[5-(trifluoromethyl)pyridin-2-yl]methyl}-2-oxoethyl)carbamate]",300
9,"COCC(CCCF)(c1ccc(F)cc1)[C@H](NC(=O)OC)C(=O)Nc1cccc(F)c1CC[C@H]1CNC2CCCS(=O)(=O)N1C2 (stereo partly drawn) [Example 142, methyl [(1S)-1-[(2-{2-[(9S)-2,2-dioxido-2-thia-1,7-diazabicyclo[4.3.1]dec-9-yl]ethyl}-3-fluorophenyl)carbamoyl]-5-fluoro-2-(4-fluorophenyl)-2-(methoxymethyl)pentyl]carbamate]",270
10,COCC(CCCF)(c1ccc(F)cc1)[C@H](N)C(=O)Nc1cccc(F)c1CC[C@H]1CNC2CCCS(=O)(=O)N1C2 (some centres unmarked) [Example 140],1200
11,COCC(CCCF)(c1ccc(F)cc1)[C@H](N)C(=O)Nc1cccc(F)c1CC[C@H]1CNC2CCCS(=O)(=O)N1C2 (some centres unmarked) [Example 139],460
12,"COC(=O)NC(C(=O)Nc1cccc(F)c1CC[C@H]1CN[C@@H]2CCCS(=O)(=O)N1C2)C(c1ccc(F)cc1)c1ccc(C(F)(F)F)cn1 (stereo partly drawn) [Example 219, methyl (2-[(2-{2-[(6R,9S)-2,2-dioxido-2-thia-1,7-diazabicyclo[4.3.1]dec-9-yl]ethyl}-3-fluorophenyl)amino]-1-{(4-fluorophenyl)[5-(trifluoromethyl)pyridin-2-yl]methyl}-2-oxoethylcarbamate]",12
13,"COC1CCCC([C@H](c2ccc(Cl)cc2)[C@H](N)C(=O)Nc2cccc(F)c2CC[C@H]2CNC3CCCS(=O)(=O)N2C3)C1 (stereo partly drawn) [Example 226, (βR)-4-Chloro-N-(2-{2-[(9S)-2,2-dioxido-2-thia-1,7-diazabicyclo[4.3.1]dec-9-yl]ethyl}-3-fluorophenyl)-β-(3-methoxycyclohexyl)-L-phenylalaninamide]",6.1
14,"COC1CCCC([C@H](c2ccc(Cl)cc2)[C@H](N)C(=O)Nc2cccc(F)c2CC[C@H]2CNC3CCCS(=O)(=O)N2C3)C1 (stereo partly drawn) [Example 197, (βR)-4-chloro-N-(2-{2-[(9S)-2,2-dioxido-2-thia-1,7-diazabicyclo[4.3.1]dec-9-yl]ethyl}-3-fluorophenyl)-β-(3-methoxycyclohexyl)-L-phenylalaninamide]",10
15,"N[C@H](C(=O)Nc1cccc(F)c1CC[C@H]1CN[C@@H]2CCCS(=O)(=O)N1C2)C(c1ccc(F)cc1)c1ccc(C(F)(F)F)cn1 (stereo partly drawn) [Example 213, N-(2-{2-[(6R,9S)-2,2-dioxido-2-thia-1,7-diazabicyclo[4.3.1]dec-9-yl]ethyl}-3-fluorophenyl)-4-fluoro-β-[5-(trifluoromethyl)pyridin-2-yl]phenylalaninamide]",200
16,"N[C@H](C(=O)Nc1cccc(F)c1CC[C@H]1CN[C@@H]2CCCS(=O)(=O)N1C2)C(c1ccc(F)cc1)c1ccc(C(F)(F)F)cn1 (stereo partly drawn) [Example 222, N-(2-{2-[(6R,9S)-2,2-dioxido-2-thia-1,7-diazabicyclo[4.3.1]dec-9-yl]ethyl}-3-fluorophenyl)-4-fluoro-β-[5-(trifluoromethyl)pyridin-2-yl]phenylalaninamide]",87
17,"N[C@H](C(=O)Nc1cccc(F)c1CCC1CNC2CCCS(=O)(=O)N1C2)[C@@H](c1ccc(Cl)cc1)C1CCOC(CC(F)(F)F)C1 (stereo partly drawn) [Example 164, (βR)-4-chloro-N-{2-[2-(2,2-dioxido-2-thia-1,7-diazabicyclo[4.3.1]dec-9-yl)ethyl]-3-fluorophenyl}-β-[2-(2,2,2-trifluoroethyl)tetrahydro-2H-pyran-4-yl]-L-phenylalaninamide]",12
